Measured values from PubChem BioAssay (NCATS).
“And” between values parts separate entries of the source, which are not always exact repeats. Equal entries are not always repeated. The inconclusive results got no clear call from the source; some entries with a clear call stand among them for comparison. A potency beside an inconclusive call is a rough fit, not a confirmed value. More than one record can exist for a structure, and the calls need not agree. The source made the active and inactive calls. Calls follow the shape of the dose curve; as a rule, active = well fitted curve in the direction sought with a large enough effect; inconclusive = small, poorly fitted or top-dose-only effect, or another doubt; inactive = no such curve, though single readings can be large; an effect the other way counts as inactive or inconclusive.

Tests used:
[1] = Viability qHTS for spleen associated tyrosine kinase inhibitor (SYKi) naive MV4-11 cells (AID 1963823); details: MV4-11 AML viability, CellTiter-Glo luminescence, 72 h; viability (% of control): at 45 µM (top of the series); also: nearly all actives have a fitted effect of over 40% in size
In short: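 Read-out: CellTiter-Glo luminescence. Exposure: 72 hr, 37 C, 5% CO2, 95% humidity. Cells: MV4-11 without SYK inhibitor history, 500/well, qHTS format.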

[2] = Viability qHTS for spleen associated tyrosine kinase inhibitor (SYKi) drug resistant MV4-11 cells (AID 1963824); also: nearly all actives have a fitted effect of over 35% in size
In short: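 SYK inhibitor-resistant MV4-11 AML cells, 500 per well, added to predispensed compounds and incubated 72 hr at 37 C, 5% CO2. Viability measured by CellTiter-Glo luminescence after 10 min at room temperature.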

[3] = Quantitative highthroughput screen to assess conditional lethalithy of NOMO1 cells grown in RPMI1640 with dialyzed fetal bovine serum (RPMI+ds) (AID 1963877); also: nearly all actives have a fitted effect of over 30% in size;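 as to Viability: 100% = DMSO control wells and 0% = empty wells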
In short: (§1)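 Each medium arm—HPLM with 10% dialyzed FBS, or RPMI1640 with 5 mM glucose and 10% untreated or dialyzed FBS—was screened against an 11-point, 3-fold compound titration for 48 h at 37 °C, with CellTiter-Glo luminescence as endpoint.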

[4] = Quantitative highthroughput screen to assess conditional lethalithy of NOMO1 cells grown in Human Plasma-Like Medium with dialyzed fetal bovine serum (HPLM+ds) (AID 1963878); details: NOMO1 AML cells in HPLM+ds, CellTiter-Glo viability, 48 h; viability: at 45.8 µM (top of the series); also: nearly all actives have a fitted effect of over 35% in size;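 as to Viability: 100% = DMSO wells and 0% = empty wells on each plate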
In short: as §1

[5] = Quantitative highthroughput screen to assess conditional lethalithy of P12 Ichikawa cells grown in RPMI1640 with dialyzed fetal bovine serum (RPMI+ds) (AID 1963880); details: Potency: P12-Ichikawa viability; also: nearly all actives have a fitted effect of over 35% in size;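 as to Viability: 100% = DMSO wells and 0% = empty wells on each plate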
In short: as §1

[6] = Quantitative highthroughput screen to assess conditional lethalithy of SEM cells grown in RPMI1640 with unreated serum (RPMI+s) (AID 1963883); details: SEM B-ALL cells, CellTiter-Glo viability, 48 h; viability: at 45.8 µM (top of the series); also: nearly all actives have a fitted effect of over 35% in size;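 as to Viability: 100% = DMSO wells and 0% = empty wells without cells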
In short: as §1

[7] = Quantitative highthroughput screen to assess conditional lethalithy of SEM cells grown in RPMI1640 with dialyzed fetal bovine serum (RPMI+ds) (AID 1963884); details: SEM B-ALL cells, RPMI+dialyzed FBS, CellTiter-Glo viability, 48 h; viability: at 45.8 µM (top of the series); also: nearly all actives have a fitted effect of over 35% in size;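 as to Viability: 100% = DMSO control wells and 0% = empty wells without cells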
In short: as §1

[8] = Cellular viability qHTS for adrenocortical cancer (ACC) cell line NCI-H295R (AID 1963990); details: CellTiter-Glo ATP luminescence, 48 h; activity change, negative = viability loss: at 46.1 µM (top of the series); also: nearly all actives have a fitted effect of over 60% in size;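 as to activity change, negative = viability loss: 0% = DMSO only wells and -100% = full killing with cytotoxic reference compound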
In short: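 Viability of NCI-H295R after 48 h of treatment (final up to 46 uM) measured through cellular ATP luminescence.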

[9] = Quantitative highthroughput screen to assess conditional lethalithy of P12 Ichikawa cells grown in RPMI1640 with untreated serum (RPMI+s) (AID 1963881); details: Potency: viability; also: nearly all actives have a fitted effect of over 35% in size;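 as to Viability: 100% = DMSO wells and 0% = empty wells without cells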
In short: as §1

[10] = Quantitative highthroughput screen to assess conditional lethalithy of SEM cells grown in Human Plasma-Like Medium with dialyzed fetal bovine serum (HPLM+ds) (AID 1963882); also: nearly all actives have a fitted effect of over 35% in size
In short: as §1

[11] = Cellular viability qHTS for adrenocortical cancer (ACC) cell line SW-13 (AID 1963989); details: SW-13 ACC cells viability, CellTiter-Glo, 48 h; activity (max response): stronger effect = lower value; also: nearly all actives have a fitted effect of over 65% in size;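 as to activity (max response): cells grown in serum-free medium with ITS supplement; % is scaled to controls: 0 for no effect and ±100 for the full control effect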
In short: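 Here, serum-free SW-13 cultures were dosed up to 46 uM. Following 48 h, ATP-dependent luminescence (CellTiter-Glo) reported viable cells, and logistic modeling produced IC50 values.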

[12] = Quantitative highthroughput screen to assess conditional lethalithy of P12 Ichikawa cells grown in Human Plasma-Like Medium with dialyzed fetal bovine serum (HPLM+ds) (AID 1963879); details: Potency: viability; also: nearly all actives have a fitted effect of over 35% in size
In short: as §1
Potency is read from the fitted curve at half-maximal effect; tags tell the direction and shape of the fitted curve.

Row | SMILES | Potency [1] | Potency [2] | Potency [3] | Potency [4] | Potency [5] | Potency [6] | Potency [7] | Potency [8] | Potency [9] | Potency [10] | Potency [11] | Potency [12] | activity (max response) [11]
1 | COC(=O)[C@H](c1ccccc1Cl)N1CCc2sccc2C1 | inconclusive: 11.8 µM [cytotoxic, partial curve, poor fit] | inconclusive: 20.9 µM [cytotoxic, single point] | inconclusive: 1.32 µM [cytotoxic, full curve] | inconclusive: 1.05 µM [cytotoxic, full curve] | active: 11.8 µM | inactive | inactive |  |  |  |  |  | 
2 | COC1CCC(C(=O)c2ccc3nc4c(cc3c2)CCCO4)CC1 (configuration not stated) | inconclusive: 16.6 µM [cytotoxic, partial curve] | inconclusive: 33.2 µM [cytotoxic, single point] | active: 18.7 µM | inconclusive: 16.6 µM [cytotoxic, partial curve] | inconclusive: 23.5 µM [cytotoxic, single point] | inconclusive: 33.2 µM [cytotoxic, partial curve, poor fit] |  | inactive |  |  |  |  | 
3 | CS(=O)(=O)N1CCc2c(-c3cnc(N)nc3)nc(N3CCOCC3)nc21 | inconclusive: 1.64 µM [cytotoxic, full curve] and active: 1.86 µM | inconclusive: 2.06 µM [cytotoxic, full curve] | inconclusive: 0.264 µM [cytotoxic, full curve] | inconclusive: 0.332 µM [cytotoxic, full curve, poor fit] | inconclusive: 6.62 µM [cytotoxic, partial curve, poor fit] |  | inconclusive: 3.72 µM [cytotoxic, full curve] |  | inconclusive: 0.743 µM [cytotoxic, full curve, poor fit] | inconclusive: 4.18 µM [cytotoxic, partial curve] | inconclusive: 1 µM [cytotoxic, full curve] |  | 
4 | Cc1ccc(NC(=O)C2(c3ccc4c(c3)OC(F)(F)O4)CC2)nc1-c1cccc(C(=O)O)c1 | inactive and inconclusive: 16.6 µM [cytotoxic, partial curve] | inconclusive: 25.9 µM [cytotoxic, single point] and inconclusive: 20.9 µM [cytotoxic, partial curve] | active: 0.209 µM | active: 0.187 µM | active: 0.187 µM | active: 0.0743 µM |  | inactive |  | active: 0.0935 µM |  |  | 
5 | Oc1cc2c(cc1O)C1c3ccc(O)c(O)c3OCC1(O)C2 (configuration not stated) | active: 16.6 µM | active: 14.8 µM | inactive | inactive |  | inactive | inactive |  | inactive | inactive |  | inactive | 
6 | Cc1c(C)c2c(c(C)c1O)CCC(C)(COc1ccc(CC3SC(=O)NC3=O)cc1)O2 (configuration not stated) | inconclusive: 15 µM [cytotoxic, partial curve] and inconclusive: 14.8 µM [cytotoxic, partial curve] | inconclusive: 23.7 µM [cytotoxic, single point] and inconclusive: 18.6 µM [cytotoxic, partial curve] | inactive | inactive | inconclusive: 10.5 µM [cytotoxic, full curve, poor fit] | inconclusive: 11.8 µM [cytotoxic, single point] | inconclusive: 13.2 µM [cytotoxic, partial curve, poor fit] | inconclusive: 20.6 µM [cytotoxic, single point] |  | active: 16.6 µM | inconclusive: 16.4 µM [cytotoxic, single point] and inconclusive: 28.2 µM [cytotoxic, single point] |  | 
7 | Clc1ccc2c(c1)C(N1CCNCC1)=Nc1ccccc1O2 | inconclusive: 13.3 µM [cytotoxic, single point] and inactive | active: 13.3 µM and inactive | inactive | inactive |  | inactive | inactive | inconclusive: 23.1 µM [cytotoxic, partial curve, poor fit] |  |  |  | inactive | 
8 | COCCn1c2c([n+](Cc3cnccn3)c1C)C(=O)c1ccccc1C2=O | active: 0.0093 µM | inconclusive: 0.0332 µM [cytotoxic, full curve] | active: 0.105 µM | active: 0.0662 µM | active: 0.187 µM | active: 0.0662 µM | active: 0.0418 µM |  |  |  |  |  | inconclusive: -101%
9 | CC(N[C@H]1CCCC[C@H]1NC(=O)c1ccc(Cl)cc1)c1cccc2ccccc12 (some centres not stated) | inconclusive: 5.9 µM [cytotoxic, full curve] | inconclusive: 5.25 µM [cytotoxic, full curve] | inconclusive: 9.35 µM [cytotoxic, full curve] | active: 5.26 µM | inconclusive: 9.35 µM [cytotoxic, full curve] |  |  |  | inconclusive: 8.33 µM [cytotoxic, full curve] |  | active: 25.1 µM | inconclusive: 10.5 µM [cytotoxic, full curve] | 
10 | CC(C)Oc1cc(Nc2nc(N[C@@H](C)c3ccc(F)cn3)ncc2Cl)[nH]n1 | inconclusive: 0.132 µM [cytotoxic, full curve] | active: 372 nM and active: 46.1 nM | active: 0.833 µM | inactive | inconclusive: 0.833 µM [cytotoxic, full curve] | active: 0.526 µM | active: 0.332 µM |  | inconclusive: 0.935 µM [cytotoxic, full curve] | inconclusive: 0.372 µM [cytotoxic, full curve] |  |  | 
11 | COc1cccc(N(C)C(=S)Oc2ccc3c(c2)CCCC3)n1 | inconclusive: 21.1 µM [cytotoxic, partial curve, poor fit] | inconclusive: 21.1 µM [cytotoxic, partial curve] | inactive | inactive | inactive | inactive | inactive | inconclusive: 23.1 µM [cytotoxic, single point] | inactive |  | inconclusive: 29.1 µM [cytotoxic, single point] |  | 
12 | COc1cc2nc(N(C)CCCNC(=O)C3CCCO3)nc(N)c2cc1OC (configuration not stated) | inconclusive: 11.9 µM [cytotoxic, partial curve] | inconclusive: 0.15 µM [cytotoxic, full curve, poor fit] | inconclusive: 18.7 µM [cytotoxic, partial curve] | inconclusive: 3.32 µM [cytotoxic, full curve] | inactive | inactive | inactive |  |  |  |  |  | 
13 | CCN(CCO)CCCC(C)Nc1ccnc2cc(Cl)ccc12 (configuration not stated) | inconclusive: 7.5 nM [cytotoxic, full curve, poor fit] and inconclusive: 0.1 nM | inconclusive: 2.09 µM [cytotoxic, partial curve, poor fit] | inconclusive: 33.2 µM [cytotoxic, partial curve, poor fit] | inconclusive: 11.8 µM [cytotoxic, partial curve] |  | inconclusive: 18.7 µM [cytotoxic, partial curve, poor fit] |  |  | active: 10.5 µM | inconclusive: 11.8 µM [cytotoxic, partial curve, poor fit] |  | active: 4.18 µM | 
14 | O=C(O)CCC1CCC(c2cc(F)ccc2F)(S(=O)(=O)c2ccc(Cl)cc2)CC1 (configuration not stated) | inconclusive: 20.9 µM [cytotoxic, partial curve] | inconclusive: 14.8 µM [cytotoxic, partial curve] | inconclusive: 2.09 µM [cytotoxic, full curve] | inconclusive: 1.66 µM [cytotoxic, full curve] |  | inconclusive: 37.2 µM [cytotoxic, single point] |  |  |  |  |  | active: 8.33 µM | 
15 | COc1ncc(-c2ccc3nccc(-c4ccnnc4)c3c2)cc1NS(=O)(=O)c1ccc(F)cc1F | inconclusive: 58 nM [cytotoxic, full curve] and inconclusive: 93.4 nM [cytotoxic, full curve] | active: 58 nM and active: 132 nM | inconclusive: 0.418 µM [cytotoxic, full curve] | inconclusive: 0.833 µM [cytotoxic, full curve] |  | inconclusive: 0.296 µM [cytotoxic, full curve] |  |  |  |  |  | inconclusive: 2.96 µM [cytotoxic, full curve] | 
16 | CCC1(C)CC(=O)NC1=O (configuration not stated) | inactive | inactive | inactive | inactive | inactive | inactive | inactive |  |  |  |  | inactive | 
17 | Cc1c(C)n(Cc2ccc(-c3ccccc3C(=O)O)cc2)c2ccc(C(=O)N[C@@H](C)c3ccc([N+](=O)[O-])cc3)cc12 | inconclusive: 14.6 µM [cytotoxic, partial curve] and inconclusive: 20.9 µM [cytotoxic, partial curve] | inconclusive: 16.4 µM [cytotoxic, partial curve] | active: 9.35 µM | inconclusive: 6.62 µM [cytotoxic, full curve] |  | inactive |  | inconclusive: 35.5 µM [cytotoxic, single point] | inconclusive: 9.35 µM [cytotoxic, full curve] |  | inconclusive: 35.5 µM [cytotoxic, single point] | inconclusive: 9.35 µM [cytotoxic, full curve] | 
